Measurements taken from PubChem BioAssay AID1347165 (National Center for Advancing Translational Sciences (NCATS), 2019).
Where “and” joins values, the source holds several entries; their conditions need not be identical. Equal entries are not always repeated. The campaign covered roughly 220,000 compounds. About 5,700 (2.6%) were called active. Inconclusive results, whose numbers are uncertain, are shown with a selection of clear calls. Calls follow the shape of the dose curve; as a rule, active = well fitted inhibition curve with a large enough effect; inconclusive = small, poorly fitted or top-dose-only effect; inactive = no such curve, though single readings can be large or run the other way. A potency beside an inconclusive call is a rough fit, not a confirmed value.

What follows are compounds tested against Lysine-specific demethylase 5B (Homo sapiens) (UniProt Q9UGL1) (assay: Primary screen for KDM5B Histone Demethylases FDH-coupled qHTS). Conditions: FDH-coupled NADH fluorescence (FDH is formaldehyde dehydrogenase); activity change, negative = inhibition: at 57.7 µM (top of the series) unless noted.
Procedure, shortened: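 Inhibition is measured as reduced NADH fluorescence generation from FDH coupling to formaldehyde release. Truncated KDM5BΔAP at 200 nM final acts on H3K4me3 peptide (12.5 µM in substrate mix) in pH 7.5 HEPES buffer with Tween-20, 30 min, room temperature.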
Also: nearly all actives have a fitted effect of over 70% in size.
For activity change, negative = inhibition in this document: 0% is about no effect.
Potency is read from the fitted curve at half-maximal effect; tags tell the direction and shape of the fitted curve.

Chain of UniProt Q9UGL1 (Q9UGL1 whole entry, looked up, the tested form may be a part): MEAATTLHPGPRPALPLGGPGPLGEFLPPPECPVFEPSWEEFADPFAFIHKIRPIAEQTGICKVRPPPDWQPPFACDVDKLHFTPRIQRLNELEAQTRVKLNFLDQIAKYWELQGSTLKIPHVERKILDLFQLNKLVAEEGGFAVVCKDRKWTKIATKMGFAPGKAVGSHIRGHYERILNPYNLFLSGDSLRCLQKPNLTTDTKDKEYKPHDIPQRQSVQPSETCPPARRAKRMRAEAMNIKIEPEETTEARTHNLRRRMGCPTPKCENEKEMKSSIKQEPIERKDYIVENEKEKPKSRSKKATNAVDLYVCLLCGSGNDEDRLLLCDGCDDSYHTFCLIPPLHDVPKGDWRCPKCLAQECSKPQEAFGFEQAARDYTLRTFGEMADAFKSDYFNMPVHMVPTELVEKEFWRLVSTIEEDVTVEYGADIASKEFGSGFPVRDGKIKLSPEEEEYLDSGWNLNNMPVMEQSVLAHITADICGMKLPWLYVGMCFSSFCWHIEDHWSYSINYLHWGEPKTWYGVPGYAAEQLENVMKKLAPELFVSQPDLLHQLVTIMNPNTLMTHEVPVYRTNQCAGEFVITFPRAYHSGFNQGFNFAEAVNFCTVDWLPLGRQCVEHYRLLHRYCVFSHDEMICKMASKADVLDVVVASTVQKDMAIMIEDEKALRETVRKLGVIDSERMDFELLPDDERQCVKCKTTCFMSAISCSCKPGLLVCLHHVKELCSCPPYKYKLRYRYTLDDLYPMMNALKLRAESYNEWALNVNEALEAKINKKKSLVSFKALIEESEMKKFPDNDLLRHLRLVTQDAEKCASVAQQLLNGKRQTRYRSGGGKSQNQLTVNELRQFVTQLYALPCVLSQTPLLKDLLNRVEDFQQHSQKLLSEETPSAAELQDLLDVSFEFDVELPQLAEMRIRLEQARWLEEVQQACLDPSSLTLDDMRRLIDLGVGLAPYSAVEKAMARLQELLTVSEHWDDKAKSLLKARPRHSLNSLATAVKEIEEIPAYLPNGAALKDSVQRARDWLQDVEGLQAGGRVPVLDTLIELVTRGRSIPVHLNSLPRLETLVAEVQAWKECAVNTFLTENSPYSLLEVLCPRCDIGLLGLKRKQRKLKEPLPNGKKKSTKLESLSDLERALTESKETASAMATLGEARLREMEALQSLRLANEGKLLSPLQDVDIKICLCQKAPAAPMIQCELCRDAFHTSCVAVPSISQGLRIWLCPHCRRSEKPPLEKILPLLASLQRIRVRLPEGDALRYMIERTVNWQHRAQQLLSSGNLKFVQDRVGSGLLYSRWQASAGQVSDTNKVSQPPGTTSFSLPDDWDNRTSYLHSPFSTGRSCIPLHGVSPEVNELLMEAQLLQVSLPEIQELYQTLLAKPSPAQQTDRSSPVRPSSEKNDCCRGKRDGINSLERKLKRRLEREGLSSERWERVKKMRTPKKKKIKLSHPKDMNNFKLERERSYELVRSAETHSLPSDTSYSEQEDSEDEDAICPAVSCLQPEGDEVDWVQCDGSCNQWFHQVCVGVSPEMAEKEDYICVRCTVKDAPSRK

| Structure (SMILES) | Potency | activity change, negative = inhibition |
| --- | --- | --- |
| Cc1ccc(Cl)cc1N1CCN(C(=O)c2cccn2-c2nnc(N3CCCC3)s2)CC1 | inconclusive: 50.1 µM [inhibitor, single point] |  |
| CC(C)(C)CC(=O)Nc1ccncc1 |  | inactive: -12.3% |
| Cc1ccc(CNC(=O)Cc2c[nH]c3ccccc23)cc1 |  | inactive: 4.79% |
| COc1ccccc1C(C)NC(=O)Cn1c(=O)c2c(ncn2C)n(C)c1=O (stereo unspecified) |  | inactive: 0.549% |
| Cc1cc(OCC(=O)NC2CC(C)(C)NC(C)(C)C2)c2c(C)c(C)c(=O)oc2c1 | inconclusive: 10 µM [inhibitor, partial curve, poor fit] |  |
| COc1ccc(-c2nnc(CCC(=O)N3CCCCC3)c(=O)[nH]2)cc1 | inconclusive: 11.2 µM [inhibitor, partial curve] |  |
| CCS(=O)(=O)NCC1(COc2ccc(S(C)(=O)=O)cc2)C[C@@H](O)[C@@H](O)C1 (stereo partly specified) | inconclusive: 25.1 µM [inhibitor, single point] |  |
| OCc1cc(CC2(NCc3ccccc3O)COC2)no1 | inconclusive: 50.1 µM [inhibitor, partial curve, poor fit] |  |
| CN(CCc1ccccn1)C(=O)CCC[C@@H]1[C@H]2CCCN3CCC[C@@H](CN1C(=O)c1ccccc1)[C@@H]23 | inconclusive: 25.1 µM [inhibitor, single point] |  |
| CN(C)c1nc(-c2ccncc2)nc2c1CCN(C(=O)c1cc(=O)[nH]c(=O)[nH]1)C2 | inconclusive: 31.6 µM [inhibitor, partial curve, poor fit] |  |
| CCCN1CCN(c2ccc(-c3nc(C)no3)cn2)CC1 |  | inactive: -26.9% |
| COc1ncccc1-c1cnc2[nH]cc(CC(=O)NCc3ccco3)c2c1 | active: 35.5 µM |  |
| COc1ccc(C(=O)C(C)OC(=O)c2ccc3ccccc3n2)cc1 (stereo unspecified) |  | inactive: 16% |
| CC(C)c1ccc(CN2CCCC3(CCN(c4ncccc4C(N)=O)C3)C2)cc1 (stereo unspecified) | inconclusive: 39.8 µM [inhibitor, partial curve, poor fit] |  |
| Cc1cc(C(N)=O)c(-c2c(C)n[nH]c2C)nc1C | inconclusive: 17.8 µM [inhibitor, partial curve, poor fit] |  |
| CC1=C(C(N)=O)C(c2ccc(F)cc2)n2nc(-c3ccc(N(C)C)cc3)nc2N1 (stereo unspecified) | inconclusive: 17.8 µM [inhibitor, partial curve, poor fit] |  |
| Cc1ccc(Cn2c(C(=O)O)c(CNCc3cccs3)c3ccc(C)cc32)cc1 | inconclusive: 35.5 µM [inhibitor, single point] |  |
| COc1ccc(/C(=N/OC(=O)c2cc(Cl)ccc2OC)c2nccc3cc(OC)c(OC)cc23)cc1OC | inconclusive: 35.5 µM [inhibitor, single point] |  |
| CCN(CC)C(CNc1nc(CCN)nc2ccccc12)c1ccco1 (stereo unspecified) | inconclusive: 17.8 µM [inhibitor, partial curve, poor fit] |  |
| Cc1noc(C)c1-c1cc2c(cc(C)n2C)c(-c2cccnc2)n1 | active: 35.5 µM |  |
| NC(=O)C1CCN(c2cc(-c3noc([C@@H]4CCCN4Cc4ccc(F)c(F)c4)n3)ccn2)CC1 | active: 25.1 µM |  |

| Structure (SMILES) | Potency | activity change, negative = inhibition |
| --- | --- | --- |
| Cc1nn(-c2ccccc2)c(C)c1-c1nnc(-c2c(C)nn(-c3ccccc3)c2C)o1 | inconclusive: 39.8 µM [inhibitor, partial curve, poor fit] |  |
| CCN(CC)C(=O)Cc1cccn1-c1ccc(Cl)cc1 | inconclusive: 31.6 µM [inhibitor, single point] |  |
| Cc1noc(-c2cccn3c(CNC(=O)c4cc(F)cc(F)c4)nnc23)n1 | inconclusive: 7.94 µM [inhibitor, full curve, poor fit] |  |
| COc1cc2c(cc1OC)C(C[C@H]1CN(C(=O)Nc3cccc(C(C)=O)c3)CC[C@H]1CC(=O)O)=NCC2 | active: 28.2 µM |  |
| COc1ccc(NC(=O)c2cc3cc(C)ccc3n2C)cc1 | inconclusive: 28.2 µM [inhibitor, partial curve, poor fit] and inconclusive: 1.78 µM [inhibitor, partial curve, poor fit] |  |
| COC(=O)C1=C(C(=O)OC)SC(=C(Cl)C(=S)Oc2ccccc2)S1 |  | inactive: -32.3% |
| COc1ccc(F)cc1-c1cccc(C=O)c1 |  | inactive: 13.1% [at 149 µM] |
| CCOc1cc2c(cc1NC(=O)c1ccc(C)c(OC)c1)OC(C)C2 (stereo unspecified) | inconclusive: 39.8 µM [inhibitor, single point] |  |
| COc1ccccc1CCC(=O)N1CCC(Cc2nc(-c3cnccn3)no2)CC1 |  | inactive: -6.77% |
| Cn1c(=O)c(=O)n(C)c2cc(N3CCOCC3)c(NS(=O)(=O)c3ccc(F)c(Cl)c3)cc21 | inconclusive: 25.1 µM [inhibitor, partial curve, poor fit] |  |
| CCn1ccnc1CN(C)C(=O)c1cc(-c2cnc(N)nc2)nc2c(C)cccc12 | active: 28.2 µM |  |
| Cc1nc2scc(CC(=O)N3CCOCC3)n2c(=O)c1-c1cc(C)n(-c2ccc(C(C)C)cc2)n1 | active: 25.1 µM |  |
| C=CCCC(CN1CCCOCC1)Oc1ncc(C)c(N(C)C)n1 (stereo unspecified) | inconclusive: 11.2 µM [inhibitor, partial curve] |  |
| COc1ccc(OC)c(C2C(C(=O)Nc3ccccc3OC)=C(C)Nc3c(C(=O)Nc4ccc(F)cc4)cnn32)c1 (stereo unspecified) | inconclusive: 35.5 µM [inhibitor, single point] |  |
| COc1ccc(C(=O)Nc2c(C(=O)c3ccccc3)oc3ccccc23)cc1 |  | inactive: -14.1% |
| CNC(=O)Nc1ccc(C)n(CC(=O)NCc2ccccc2C)c1=O | inconclusive: 35.5 µM [inhibitor, single point] |  |
| Cc1cccc(-n2nc(-c3c(C)nc4scc(CC(=O)NC(C)C(C)C)n4c3=O)cc2C)c1 (stereo unspecified) | inconclusive: 17.8 µM [inhibitor, partial curve, poor fit] |  |
| COc1cc(OC)cc(-c2onc(C)c2C(=O)NC(C)c2ccccc2)c1 (stereo unspecified) | inconclusive: 31.6 µM [inhibitor, single point] |  |
| CC(C)Cc1cc(CNC(=O)C2CCC(=O)N(Cc3cccc(C(F)(F)F)c3)C2)on1 (stereo unspecified) | inconclusive: 35.5 µM [inhibitor, single point] |  |
| COc1ccccc1-c1ncc(CNc2cc(C3CC(O)C3)ncn2)s1 (stereo unspecified) | inconclusive: 28.2 µM [inhibitor, partial curve, poor fit] |  |
